Data on 27 compounds can be found in the antibiotic and cytotoxicity screens of Wong et al. (2023).

In one assay the test system is HSkMC. The experiment in a line: cytotoxicity call (relative viability < 0.9). To be noted: 10 µM.
Another assay relates to HepG2. The experiment in a line: cytotoxicity call (relative viability < 0.9). To be noted: 10 µM.
The next assay deals with S. aureus RN4220. The experiment in a line: growth inhibition call (relative growth <= 0.2). To be noted: 50 µM.

Molecules are shown by their SMILES. The list shows a part of the results.

With `C[C@@H]1CN([C@@H](C)CO)C(=O)c2cccc(NC(=O)Nc3ccc(F)cc3)c2O[C@H]1CN(C)CC1CCCCC1`, the cytotoxicity call in the assay on HSkMC and with HepG2 was “inactive” in each case. In the assay with S. aureus RN4220, the growth inhibition call is “inactive”.
With `Cc1noc(C)c1S(=O)(=O)Nc1ccc2c(c1)CC(=O)N([C@@H](C)CO)C[C@@H](C)[C@@H](CN(C)Cc1ccc(-c3ccccc3)cc1)O2`, the cytotoxicity call in the assay on HSkMC and in the assay on HepG2 was “inactive” each time. The growth inhibition call in the assay on S. aureus RN4220 is “inactive”.
As to `COc1ccccc1CNC(=O)C[C@@H]1C[C@@H]2c3cc(NC(=O)NC4CCCC4)ccc3O[C@@H]2[C@@H](CO)O1`, the cytotoxicity call with HSkMC and in the assay on HepG2 was “inactive” each time. In the assay with S. aureus RN4220, the growth inhibition call was “inactive”.
For the compound `COc1cccc(NC(=O)N[C@H]2C=C[C@@H](CC(=O)N3CCN(C)CC3)O[C@@H]2CO)c1`, the cytotoxicity call with HSkMC and in the assay on HepG2 was “inactive” in each case. Further, the growth inhibition call in the assay on S. aureus RN4220 is “inactive”.
In the case of `Cc1ccc(S(=O)(=O)N(C)C[C@H]2Oc3c(NC(=O)NC(C)C)cccc3C(=O)N([C@H](C)CO)C[C@H]2C)cc1`, the cytotoxicity call in the assay with HSkMC and with HepG2 was “inactive” in each case. The growth inhibition call in the assay on S. aureus RN4220 was “inactive”.
For the compound `C[C@@H]1CN([C@@H](C)CO)S(=O)(=O)c2ccc(C#CCN(C)C)cc2O[C@@H]1CN(C)S(=O)(=O)c1cccc(F)c1`, the cytotoxicity call with HSkMC and in the assay on HepG2 was “inactive” throughout. In addition, the growth inhibition call with S. aureus RN4220 is “inactive”.
On to `O=C(C[C@H]1CC[C@H]2[C@@H](COC[C@@H](O)CN2S(=O)(=O)c2ccccc2)O1)N1CCOCC1`, for which the cytotoxicity call with HSkMC and with HepG2 was “inactive” each time. Besides, the growth inhibition call in the assay with S. aureus RN4220 is “inactive”.
As to `COc1ccc(CN(C)C[C@@H]2Oc3ccc(NC(=O)Nc4ccc(C(F)(F)F)cc4)cc3C(=O)N([C@H](C)CO)C[C@@H]2C)cc1`, the cytotoxicity call in the assay with HSkMC and in the assay on HepG2 was “active” in each case. In addition, the growth inhibition call in the assay on S. aureus RN4220 was “active”.
In the case of `C[C@@H]1CN([C@@H](C)CO)C(=O)c2cccc(NC(=O)C3CCCCC3)c2O[C@@H]1CN(C)C(=O)Nc1cccc2ccccc12`, the cytotoxicity call in the assay with HSkMC and with HepG2 was “inactive” throughout. Besides, the growth inhibition call with S. aureus RN4220 was “inactive”.
With `COc1ccccc1CNC(=O)C[C@@H]1C[C@H]2c3cc(NC(=O)c4ccc5c(c4)OCO5)ccc3O[C@H]2[C@H](CO)O1`, the cytotoxicity call in the assay on HSkMC was “active”. For the same compound, the cytotoxicity call with HepG2 is “inactive”. Besides, the growth inhibition call with S. aureus RN4220 is “inactive”.
On to `CO[C@@]1(NC(=O)[C@@H](C(=O)O)c2ccc(O)cc2)C(=O)N2C(C(=O)O)=C(CSc3nnnn3C)CO[C@@H]21`, for which the cytotoxicity call in the assay with HSkMC and in the assay on HepG2 was “inactive” throughout. Besides, the growth inhibition call in the assay with S. aureus RN4220 is “inactive”.
For `Cc1ccc(S(=O)(=O)N(C)C[C@@H]2Oc3ccc(NC(=O)Nc4cccc5ccccc45)cc3C(=O)N([C@H](C)CO)C[C@H]2C)cc1`, the cytotoxicity call in the assay on HSkMC and with HepG2 was “inactive” in each case. Also, the growth inhibition call in the assay with S. aureus RN4220 is “inactive”.
On to `C[C@H](CO)N1C[C@H](C)[C@@H](CN(C)Cc2ccc(Cl)c(Cl)c2)Oc2ccc(NC(=O)Nc3ccc4c(c3)OCO4)cc2CC1=O`, for which, in the assay with HSkMC, the cytotoxicity call is “active”. Also, in the assay with HepG2, the cytotoxicity call was “inactive”. In the assay with S. aureus RN4220, the growth inhibition call was “inactive”.
For the compound `CCc1cn([C@H]2C[C@@H](O)[C@@H](CO)O2)c(=O)[nH]c1=O`, the cytotoxicity call with HSkMC and in the assay on HepG2 was “inactive” each time. For the same compound, the growth inhibition call in the assay on S. aureus RN4220 was “inactive”.
`Cc1noc(C[C@@H]2C[C@@H]3CN(S(C)(=O)=O)C[C@@H]3O2)n1`: the cytotoxicity call in the assay on HSkMC and in the assay on HepG2 was “inactive” throughout. Moreover, the growth inhibition call with S. aureus RN4220 was “inactive”.
In the case of `CCOc1cc2ncc(C#N)c(Nc3ccc(OCc4ccccn4)c(Cl)c3)c2cc1NC(=O)/C=C/CN(C)C`, the cytotoxicity call in the assay on HSkMC and with HepG2 was “active” each time. Further, the growth inhibition call in the assay on S. aureus RN4220 is “inactive”.
As for `C[C@H]1CN([C@@H](C)CO)C(=O)c2cc(NS(=O)(=O)c3ccc(F)cc3)ccc2O[C@@H]1CN(C)S(=O)(=O)c1cccs1`, the cytotoxicity call with HSkMC and with HepG2 was “inactive” each time. The growth inhibition call with S. aureus RN4220 was “inactive”.
For `Cc1noc(C)c1NC(=O)N(C)C[C@@H]1OCCCC[C@@H](C)Oc2ccc(NC(=O)Cc3ccccc3)cc2C(=O)N([C@H](C)CO)C[C@H]1C`, the cytotoxicity call in the assay with HSkMC and with HepG2 was “inactive” each time. Moreover, the growth inhibition call in the assay with S. aureus RN4220 was “inactive”.
For `COc1ccc(S(=O)(=O)N(C)C[C@@H]2Oc3ccc(NC(=O)c4ccncc4)cc3C(=O)N([C@@H](C)CO)C[C@@H]2C)cc1`, the cytotoxicity call with HSkMC and with HepG2 was “inactive” throughout. In addition, the growth inhibition call in the assay on S. aureus RN4220 was “inactive”.
With `NC1C(OC2C(C(=O)[O-])OC(COC3C(CO)OC(O)C(O)C3O)C(OS(=O)(=O)[O-])C2O)OC(COS(=O)(=O)[O-])C(O)C1O` (stereo unspecified), the cytotoxicity call in the assay with HSkMC and in the assay on HepG2 was “inactive” throughout. In the assay with S. aureus RN4220, the growth inhibition call was “inactive”.
As to `COc1ccc(NC(=O)Nc2ccc3c(c2)CC(=O)N([C@H](C)CO)C[C@@H](C)[C@@H](CN(C)Cc2ccc(Oc4ccccc4)cc2)O3)cc1`, in the assay on HSkMC, the cytotoxicity call is “inactive”. The cytotoxicity call in the assay with HepG2 was “active”. Further, the growth inhibition call in the assay on S. aureus RN4220 is “inactive”.
Regarding `Cl.NC[C@H](N)C(=O)O`, the cytotoxicity call in the assay on HSkMC (human skeletal muscle cells) and with HepG2 was “inactive” each time. Moreover, the growth inhibition call in the assay with S. aureus RN4220 was “inactive”.
As to `C[C@H]1CN([C@@H](C)CO)C(=O)Cc2cc(NC(=O)Nc3ccc4c(c3)OCO4)ccc2O[C@@H]1CN(C)C(=O)Nc1cccc2ccccc12`, the cytotoxicity call in the assay with HSkMC and in the assay on HepG2 was “inactive” each time. Moreover, the growth inhibition call in the assay with S. aureus RN4220 was “inactive”.
For `C[C@@H]1CCCCO[C@@H](CN(C)Cc2ccc(Cl)c(Cl)c2)[C@@H](C)CN([C@@H](C)CO)C(=O)c2cc(NS(=O)(=O)c3ccc(Cl)cc3)ccc2O1`, the cytotoxicity call with HSkMC and with HepG2 was “active” each time. In the assay with S. aureus RN4220, the growth inhibition call was “inactive”.
On to `CCS(=O)(=O)N1C[C@]2(CCN(CC2)C(=O)Cc2ccccc2)c2c(n(c3cc(ccc23)OC)C)[C@@H]1CO`, for which the cytotoxicity call in the assay with HSkMC and with HepG2 was “inactive” in each case. Besides, the growth inhibition call in the assay on S. aureus RN4220 was “inactive”.
In the case of `COc1ccc(NC(=O)Nc2ccc3c(c2)C(=O)N([C@H](C)CO)C[C@H](C)[C@H](CN(C)Cc2ccc(C(=O)Nc4ccccc4N)cc2)OCCCC[C@@H](C)O3)cc1`, the cytotoxicity call in the assay with HSkMC and with HepG2 was “inactive” each time. The growth inhibition call with S. aureus RN4220 was “inactive”.
Take `COCC#Cc1cnc2c(c1)C(=O)N([C@@H](C)CO)C[C@@H](C)[C@@H](CN(C)S(=O)(=O)c1ccccc1)O2`: the cytotoxicity call in the assay with HSkMC and in the assay on HepG2 was “inactive” throughout. Further, the growth inhibition call in the assay with S. aureus RN4220 was “inactive”.
